Source: PubChem BioAssay AID1458 (National Center for Advancing Translational Sciences (NCATS), 2008)
Hit rate of the full screen: of about 210,000 compounds, about 5,900 (2.8%) were called active. Inconclusive means that the source gave no clear call. Such entries were picked first, then a sample of the others. Calls follow the shape of the dose curve; as a rule, active = well fitted activation curve with a large enough effect; inconclusive = small, poorly fitted or top-dose-only effect; inactive = no such curve, though single readings can be large or run the other way. A potency beside an inconclusive call is a rough fit, not a confirmed value.

Assay: qHTS Assay for Enhancers of SMN2 Splice Variant Expression; also: nearly all actives have a fitted effect of over 55% in size
Conditions: HEK293 SMN2-luciferase splicing reporter, luminescence, 30-36 h; series mostly up to 46.1 µM
In short: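 HEK293 cells carry an SMN2 […]–luciferase reporter in which exon 7 inclusion puts luciferase in frame. Cells were plated 10-12 h before compound addition, then incubated 30-36 h at 37C. ONE-Glo luminescence was read; sodium butyrate at 4.5 mM final served as control.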
Potency is read from the fitted curve at half-maximal effect; tags tell the direction and shape of the fitted curve.

| SMILES | Potency |
| --- | --- |
| CN1C(=S)SC(/[N+]([O-])=C\c2ccccc2)C1(C)C (stereo unspecified) | inactive |
| O=C(CCc1ccccc1)n1nc(-c2ccccc2)nc1NCc1ccco1 | inconclusive: 17.8 µM [activator, partial curve, poor fit] |
| CC(O)C(=O)N/N=C/c1cccc(Cl)c1Cl (stereo unspecified) | inconclusive: 12.6 µM [activator, partial curve, poor fit] |
| COCCNC(=O)/C(C#N)=C/c1cccc(/C=C(\C#N)C(=O)NCCOC)c1 | inconclusive: 14.1 µM [activator, single point] |
| CCc1ccc(OCc2nc(-c3ccccn3)no2)c(Br)c1 | active: 0.501 µM |
| O=C(Nc1noc2ccccc12)c1cccc(F)c1 | inconclusive: 25.1 µM [activator, single point] |
| Cc1noc(/C=C/N(C)C)c1S(=O)(=O)N1CCCC(C(=O)Nc2cccc(F)c2)C1 (stereo unspecified) | inactive |
| N=c1c(C(=O)NCC2CCCO2)cc2c(=O)n3ccccc3nc2n1Cc1cccnc1 (stereo unspecified) | inconclusive: 0.0089 µM [activator, full curve, poor fit] |
| CC(C)(C)NC(=O)Cn1nnnc1-c1nonc1N | inconclusive: 0.0282 µM [activator, full curve, poor fit] |
| Cc1noc(NS(=O)(=O)c2ccc(NC(=O)c3ccc(N4C(=O)c5ccccc5C4=O)cc3)cc2)c1C | inconclusive: 31.6 µM [activator, single point] |
| Cc1cc(N/C=C/C(=O)c2ccc(Br)cc2)no1 | inconclusive: 25.1 µM [activator, single point] |
| Cc1cc(C(=O)NCC(C)C)c2ccccc2n1 | inconclusive: 0.0071 µM [activator, full curve, poor fit] |
| Cc1occc1C(=O)Nc1nnc(-c2cccs2)s1 | active: 3.55 µM |
| O=C1CN(C(=O)c2cc3ccccc3oc2=O)C(c2ccccc2)c2cc(F)ccc2N1 (stereo unspecified) | inconclusive: 5.62 µM [activator, single point] |
| CC(Sc1nncs1)C(=O)Nc1ccc2c(c1)OCO2 (stereo unspecified) | inconclusive: 0.02 µM [activator, full curve, poor fit] |
| Nc1cc(C(=O)c2ccccc2)ccc1N1CCOCC1 | inconclusive: 11.2 µM [activator, partial curve] |
| COCCCNC(=O)Cn1nnc(-c2ccc(NC(=O)c3ccccc3F)cc2)n1 | inconclusive: 22.4 µM [activator, single point] |
| CN(C#N)c1nccc(-c2cccs2)n1 | inconclusive: 35.5 µM [activator, single point] |
| CC1CCCCN1C(=O)CSc1nnc(-c2cccc(Cl)c2)o1 (stereo unspecified) | inconclusive: 25.1 µM [activator, partial curve, poor fit] |
| O=C(COc1ccc(Cl)cc1)Nc1ccccc1C(=O)NCc1ccco1 | inconclusive: 0.224 µM [activator, full curve, poor fit] |
| Cn1c(=O)oc2cc(S(=O)(=O)NCCC(=O)Nc3ccc(F)c(Cl)c3)ccc21 | inactive |
| CCOc1ccc(-c2nonc2NC(=O)c2ccccc2C)cc1 | inconclusive: 1.26 µM [activator, partial curve] |
| COCCNC(=O)C1(C)C=CCN1C(C)=O (stereo unspecified) | inconclusive: 10 µM [activator, partial curve] |

| SMILES | Potency |
| --- | --- |
| COc1ccc(NC2=C(C)C(=O)CC2)cc1 | inconclusive: 31.6 µM [activator, partial curve, poor fit] |
| CN(C)CCCOc1nc2c(c(=O)n(C)c(=O)n2C)n1C | inconclusive: 0.0141 µM [activator, full curve, poor fit] |
| Cc1ccc(-c2nc3ccc(NS(=O)(=O)c4ccccc4)cc3[nH]2)o1 | inconclusive: 14.1 µM [activator, single point] |
| COc1ccc(OC)c2sc(NNC(=O)COc3ccccc3)nc12 | inconclusive: 22.4 µM [activator, single point] |
| O=C1C(C=NCC2CCCO2)=C(O)c2ccccc21 (stereo unspecified) | active: 11.2 µM |
| CCCCCn1c(=O)[nH]c2cc(C(=O)NCc3ccc(C)cc3)ccc2c1=O | inconclusive: 3.98 µM [activator, single point] |
| COc1ccccc1OCC(=O)N/N=C1/C=C(C)CC1 | inactive |
| NCCCCNS(=O)(=O)c1cccc2c(Cl)cccc12 | inactive |
| O=C(O)CC1SC(=O)N(Cc2ccccc2)C1=O (stereo unspecified) | inactive |
| CCSc1nnc(NC(=O)c2cc(C)oc2C)s1 | active: 11.2 µM |
| COc1ccc(-n2nnnc2SCC(N)=O)cc1 | inconclusive: 4.47 µM [activator, partial curve, poor fit] |
| Cc1nc(NC(=O)/C=C/c2ccco2)sc1C | active: 11.2 µM |
| COc1ccc(-c2cc(C(F)(F)F)n3nc(C(=O)O)nc3n2)cc1 | inconclusive: 0.0224 µM [activator, full curve, poor fit] |
| Cc1ccsc1C(=O)OCC(=O)N1CCOCC1 | inconclusive: 14.1 µM [activator, single point] |
| COc1ccc(C)cc1S(=O)(=O)Nc1cccc(Cl)c1 | inconclusive: 0.794 µM [activator, full curve] |
| O=C(CCCN1C(=O)c2ccccc2C1=O)Nc1ccc(S(=O)(=O)N2CCOCC2)cc1 | inactive |
| Cc1cc(C(=O)CSc2nnnn2C)c(C)n1-c1ccc2c(c1)OCCO2 | inconclusive: 11.2 µM [activator, partial curve] |
| CC(C)c1ccc(-n2cnn(-c3ncccc3[N+](=O)[O-])c2=O)cc1 | active: 7.94 µM |
| COc1ccc(C(=O)NCc2nnc(SCC(=O)Nc3nc4ccc(C)cc4s3)o2)cc1OC | inconclusive: 11.2 µM [activator, partial curve, poor fit] |
| CSc1n[nH]c(NCc2ccc(C)cc2)n1 | active: 15.8 µM |
| COc1ccc(C(=O)/C=C/Nc2cccc(O)c2)cc1 | inconclusive: 35.5 µM [activator, single point] |
| O=C(N=c1nc2ccccn2s1)c1ccccc1 | active: 1.78 µM |
| CCOCC(=O)Nc1nc2ccccc2s1 | active: 14.1 µM |
